“And” between values parts separate entries of the source, which are not always exact repeats. Identical values can stand only once. Out of some 94,000 compounds screened, about 4,000 (4.3%) were called active. The inconclusive results got no clear call from the source; some entries with a clear call stand among them for comparison. The call rests on the fitted dose curve; in most records, active means well fitted inhibition curve with a large enough effect; inconclusive means small, poorly fitted or top-dose-only effect; inactive means no such curve, though single readings can be large or run the other way. A potency beside an inconclusive call is a rough fit, not a confirmed value.
Experiment: Cytotoxic Profiling in NIH 3T3 Cell Line of Diverse Libraries Using Quantitative High-Throughput Screening; further: nearly all actives have a fitted effect of over 55% in size
Settings: NIH 3T3 viability, CellTiter-Glo ATP luminescence, 48-72 h; series mostly up to 96.7 µM
In short: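 ATP-dependent luminescence (CellTiter-Glo) served as the viability signal for NIH 3T3 cells treated with compound for 48 or 72 hr at 37 °C.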
Potency means the concentration at half of the fitted maximal effect; tags describe the fitted curve by direction and shape.

Row | Structure (SMILES) | Potency
1 | C=CCc1cc(-c2c(-c3ccccc3)ncn2CCOCCO)cc(OC)c1O | inconclusive: 79.4 µM [inhibitor, single point]
2 | O=C1CO[C@H]2CCN(Cc3cccc(OC(F)(F)F)c3)CC[C@@H]2N1CCN1CCCC1 | inconclusive: 50.1 µM [inhibitor, single point]
3 | COc1cccc(-c2ccc(C(=O)N3CCC4(CCCN(C)C4=O)C3)o2)c1 (stereo not drawn) | inconclusive: 56.2 µM [inhibitor, partial curve, poor fit]
4 | Cc1ccc(CC(=O)N2CCC(Cc3nc(-c4ccccc4)no3)CC2)cc1 | inconclusive: 50.1 µM [inhibitor, partial curve, poor fit]
5 | CCc1ccc(NC(=O)N2CCCC(c3noc(COc4ccccc4F)n3)C2)cc1 (stereo not drawn) | inconclusive: 44.7 µM [inhibitor, partial curve, poor fit]
6 | CCOc1ccc(CCNC(=O)Cn2ccn3nc(-c4ccccc4)c(CO)c3c2=O)cc1OCC | inconclusive: 44.7 µM [inhibitor, partial curve, poor fit]
7 | CN1CCCC1CCNc1nccc(-c2cnn(-c3ccccc3F)c2)n1 (stereo not drawn) | inconclusive: 89.1 µM [inhibitor, single point]
8 | O=C(CCn1ccn2nc3c(c2c1=O)CCCC3)Nc1ccc(F)cc1Br | inactive
9 | CN(C)c1ccc(CN2CC(Oc3ccc(F)c(F)c3)C2)cc1 | inconclusive: 50.1 µM [inhibitor, partial curve, poor fit]
10 | CCN(CC)S(=O)(=O)N(C)CC1CCCN(CCc2ccccc2OC)C1 (stereo not drawn) | inactive
11 | CC(C)CNC(=O)C1c2ccccc2C(=O)N(Cc2ccccc2)C12CCCC2 (stereo not drawn) | inconclusive: 50.1 µM [inhibitor, partial curve, poor fit]
12 | CC1=C(C(=O)OC(C)C)C(c2ccccc2F)N2C(CC(=O)N3CCCC3)=CSC2=N1 (stereo not drawn) | inactive
13 | O=C(NCc1ccccc1Cl)C1CCCN(Cc2cccc(-c3ccsc3)c2)C1 (stereo not drawn) | active: 12.6 µM
14 | O=C(c1ccccn1)N1CCCC(c2nc(C3CCOCC3)no2)C1 (stereo not drawn) | inactive
15 | Cc1ccccc1CNC(=O)c1ccc2c(c1)C(O)CCCCCN2C (stereo not drawn) | inconclusive: 56.2 µM [inhibitor, partial curve, poor fit]
16 | O=C1NC2(CCN(C(=O)c3ccc(Cl)cc3)CC2)Oc2ccccc21 | inactive
17 | COc1cccc(CC(=O)Nc2ccc3c(c2)CN(Cc2ccccc2F)C(=O)C(C)O3)c1 (stereo not drawn) | inconclusive: 50.1 µM [inhibitor, single point]
18 | Cn1ncc2c(C(=O)NCc3ccccn3)cc(-c3ccccc3F)nc21 | inconclusive: 50.1 µM [inhibitor, partial curve, poor fit]
19 | CN(Cc1ccccc1C(F)(F)F)C(=O)c1ccc(C(F)(F)F)cc1 | inconclusive: 56.2 µM [inhibitor, partial curve, poor fit]
20 | COCc1nc(C2CCN(S(=O)(=O)c3cccc(OC)c3)C2)no1 (stereo not drawn) | inactive
21 | O=C(CCC[C@@H]1[C@H]2CCCN3CCC[C@@H](CN1Cc1ccccc1)[C@@H]23)N1CCOCC1 | inconclusive: 79.4 µM [inhibitor, partial curve, poor fit]

Row | Structure (SMILES) | Potency
22 | Cc1cccc(NC(=O)N2CCc3c(C(=O)N4CCN(C)CC4)cccc32)c1 | inactive
23 | COc1ccc(CCNC(=O)c2cc(-c3cccc(C(F)(F)F)c3)c3nncn3n2)cc1 | inconclusive: 50.1 µM [inhibitor, partial curve, poor fit]
24 | Cn1cnc(S(=O)(=O)N2CCC3(CC2)CC(Cc2ccccc2)CCO3)c1 (stereo not drawn) | inconclusive: 44.7 µM [inhibitor, partial curve, poor fit]
25 | O=C(Cc1cccc(Cl)c1)N1CCCC(C(=O)N2CCC(N3Cc4cccn4C3=O)CC2)C1 (stereo not drawn) | inactive
26 | CCCS(=O)(=O)N1CCC(N2C(=O)[C@H](OC)[C@@H]2c2ccncc2)CC1 | inactive
27 | COc1cccc(C(=O)NC2CCN(C(=O)c3ccc(-c4ncccc4C#N)cc3)CC2)c1 | inconclusive: 44.7 µM [inhibitor, partial curve, poor fit]
28 | CCOc1ccc(CC(=O)N2CCC[C@H]2c2nc(-c3ccc(OC)cc3)no2)cc1 | inconclusive: 70.8 µM [inhibitor, single point]
29 | COc1cccc(NC(=O)c2cc3c(N(C)Cc4ccccc4)nc(C)cn3n2)c1 | inactive
30 | O=C(CCc1nc2ccccc2[nH]c1=O)N1CCN(CCn2cncn2)CC1 | inactive
31 | COCC(=O)N1CCCC(N2C(=O)c3c(c(C)nn3-c3ccccc3)C2C(C)C)C1 (stereo not drawn) | inactive
32 | O=C(c1cc(F)ccc1F)N1CCCC2(C1)NC(=O)N(Cc1cccc(Cl)c1)C2=O (stereo not drawn) | inactive
33 | COc1cc(C(=O)NC2CCN(c3cc(-c4cccs4)[nH]n3)C2)cc(OC)c1OC (stereo not drawn) | inconclusive: 12.6 µM [inhibitor, partial curve]
34 | O=C(NCc1nc(-c2ccncc2)n[nH]1)C1CCCN(C2CCCC2)C1 (stereo not drawn) | inactive
35 | CNC(=O)c1cc(-c2cccc(F)c2)nc2c1cnn2C | inconclusive: 44.7 µM [inhibitor, partial curve, poor fit]
36 | Cc1ccccc1CNC[C@H]1Cn2cc(-c3ccccc3)nc2CO1 | inconclusive: 50.1 µM [inhibitor, partial curve]
37 | O=C(NC1CCN(Cc2cccc(-c3cccs3)c2)CC1)C1CC1 | inconclusive: 50.1 µM [inhibitor, partial curve, poor fit] and inconclusive: 100 µM [inhibitor, partial curve, poor fit]
38 | CC(C)NC(=O)N1CCCCC1CCn1cc(-c2ccccc2)nn1 (stereo not drawn) | inactive
39 | O=C(c1nnn2c1COC(c1ccc(Cl)cc1)C2)N1CCN(C(=O)c2c(F)cccc2F)CC1 (stereo not drawn) | inconclusive: 70.8 µM [inhibitor, single point]
40 | O=C(NC1CC1)c1cc(-c2ccccc2F)cc2c1OCCN2Cc1cccnc1 | active: 89.1 µM
41 | COc1cccc(-c2cccc(C(=O)N3CCN(C(=O)c4ccc(C(F)(F)F)cc4)CC3)c2)c1 | inconclusive: 35.5 µM [inhibitor, partial curve]
42 | O=C(NCC1CCCCC1)c1cc2n(n1)CC(c1ccc(Cl)cc1)OC2 (stereo not drawn) | inconclusive: 50.1 µM [inhibitor, partial curve, poor fit]

Row | Structure (SMILES) | Potency
43 | COc1ccc(S(=O)(=O)N2CCCC(Cn3c(C)nc4cccnc43)C2)cc1 (stereo not drawn) | inconclusive: 50.1 µM [inhibitor, partial curve, poor fit]
44 | Cc1ncsc1CN1CC[C@@H]2C(=O)NCCCCCCN(Cc3ccncc3)[C@@H]2C1 | inconclusive: 79.4 µM [inhibitor, partial curve, poor fit]
45 | Cc1ccc2nc(NC(=O)Cn3nc4c(cc3=O)CCCCC4)sc2c1 | inactive
46 | Cc1cccc(-c2noc([C@@H]3Cc4nc[nH]c4CN3C(=O)c3ccc(F)cc3)n2)c1 | inconclusive: 44.7 µM [inhibitor, partial curve, poor fit]
47 | COCCCn1c(=O)c(C(=O)N2CCN(C(=O)c3ccc(Cl)cc3)CC2)nc2cccnc21 | inactive
48 | CC(C)(C)C(=O)N[C@@H](Cn1ccc(=O)[nH]c1=O)C(=O)O | inactive
49 | COc1ccc(-c2nc(C(C)C)nc3c2CCN(C(=O)c2cccc(Cl)c2)CC3)cc1 | active: 44.7 µM
50 | COc1ccc2[nH]c(C[C@@H]3C[C@@H](C(C)C)[C@H](CN(Cc4ccccn4)Cc4ccccn4)C=C3C)nc2n1 | inconclusive: 4.47 µM [inhibitor, full curve, poor fit]
51 | Cn1ccc2c(C(=O)NCc3cccnc3)nc(-c3cccnc3)cc21 | active: 25.1 µM
52 | COc1cccc(-c2nc3cc(SC)ccc3cc2CN(C)Cc2ccno2)c1 | inconclusive: 63.1 µM [inhibitor, partial curve, poor fit]
53 | COc1ccccc1CNC(=O)C[C@@H]1CCNC[C@@H]1Cc1cc(CSc2ccccc2)on1 | active: 79.4 µM
54 | CCNC(=O)N[C@H]1C[C@@H](Cc2cc(-c3ccccc3)on2)C1(C)C | inconclusive: 50.1 µM [inhibitor, partial curve, poor fit]
55 | Cc1ccc(S(=O)(=O)N2CCCN(C)c3ccccc32)cc1F | inconclusive: 44.7 µM [inhibitor, partial curve, poor fit]
56 | Cc1cn2nc(C(=O)Nc3ccc4c(c3)OCO4)cc2c(N2CCCC2)n1 | inactive
57 | CC(C)(C)c1cc(CC2(NCc3ccc(Cl)cc3)COC2)no1 | inconclusive: 89.1 µM [inhibitor, partial curve, poor fit]
58 | Cc1ccc(CN2CCCCC23Cc2ccccc2CNC3=O)cc1C (stereo not drawn) | inconclusive: 50.1 µM [inhibitor, single point]
59 | Cc1noc(C)c1[S+](=O)([O-])N1CCn2ncc(C(=O)NCc3ccc(Cl)nc3)c2C1 | inconclusive: 56.2 µM [inhibitor, partial curve, poor fit]
60 | CN1c2cccnc2CN(C(=O)Nc2ccc(Cl)cc2)CC[C@H]1CO | inconclusive: 56.2 µM [inhibitor, full curve, poor fit]
61 | Cn1cc(CN2C[C@@H]3C[C@H](C2)c2ccc(NC(=O)COc4ccccc4)c(=O)n2C3)c2ccccc21 | inconclusive: 35.5 µM [inhibitor, full curve]
62 | COc1ccc(OC)c(CN2CCC3(CC2)OC(=O)N(Cc2ccc(O)cc2)C3(C)c2ccccc2)c1 (stereo not drawn) | inconclusive: 50.1 µM [inhibitor, partial curve, poor fit]
63 | OC[C@@H]1CNC[C@H]1C1CCN(Cc2ccc(Br)s2)CC1 | inconclusive: 44.7 µM [inhibitor, partial curve, poor fit]
